# Data: the supplement of paper PMC8728848
# The other results are listed elsewhere or left out.
# B1: PV12658A-bvu-496-32-496 (Bacteroides vulgatus) (protein)
# chain: DLDGAITTPAAVELALNGIYYSLPGNGFNVIFPTVSGSFKAGTMWRQEIVSAGNAVYYSERMLPTLSFSDATEWDADYAVIKNANFLETACNRMSDGEFSGNRRAEVLGEIAYLRALAYFNILVRYCEFWDMNSEYGVVMRNEAPSVSNALKARSSVADSYQYILDQLEIAIEKAPDWKKLSQASKEAAKALKARVLLYAGKYTEAVAAVNDAIDTNSPLPEANYGDVFDKFSTTKEILFARVFDQKDATNTSTRQQCYGNSPTKKQGYWGPTNEYVELVGDDPRADAIFSKVDSLMDSRSSAVAYNLKSVKKLLNDANDMPVIFSRVSELYLIKAEALYRSGASISEAYAPIRKLRERAGAEIILPANNEELETAIFNEWMLELSFENWHEWFAMIRFAGYTEKPDFTRLLALNKTLREALEKEYEKSEAQGDNYYQRIIDRRIDAIPSSEISSNLECKQNPGY
# What was measured:
# Test in all cases: glycan array binding signal (z-score within array); higher = stronger binding
# Conditions in all cases: glycan notation: IUPAC condensed, linker removed
# Gal(b1-6)Gal = target: Gal(b1-6)Gal
# In short: (§1)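 Glycan array data came from 3228 arrays in the Consortium for Functional Glycomics database, and only arrays with an available protein sequence were kept. Glycan names were put into IUPAC-condensed notation, and columns mapping to the same glycan were averaged. The binding signal is a within-array Z-score, averaged across arrays of one protein sequence run at different concentrations or buffers and across linkers. A negative Z-score can be read as non-binding.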
# Gal3S(b1-3)GalNAc = target: Gal3S(b1-3)GalNAc
# In short: as §1
# Gal3S(b1-3)GlcNAc = target: Gal3S(b1-3)GlcNAc
# In short: as §1
# [1] = target: Gal3S(b1-3)[Fuc(a1-4)]GlcNAc
# In short: as §1
# Gal3S(b1-4)Glc = target: Gal3S(b1-4)Glc
# In short: as §1
# Gal3S(b1-4)Glc6S = target: Gal3S(b1-4)Glc6S
# In short: as §1
# Gal3S(b1-4)GlcNAc = target: Gal3S(b1-4)GlcNAc
# In short: as §1
# [2] = target: Gal3S(b1-4)[Fuc(a1-3)]Glc6S
# In short: as §1
# [3] = target: Gal3S(b1-4)[Fuc(a1-3)]GlcNAc
# In short: as §1
# [4] = target: Gal3S(b1-4)[Fuc(a1-3)]GlcNAc6S
# In short: as §1
# Gal3S4S(b1-4)GlcNAc = target: Gal3S4S(b1-4)GlcNAc
# In short: as §1
# Gal3S6S(b1-4)GlcNAc = target: Gal3S6S(b1-4)GlcNAc
# In short: as §1
# Gal3S6S(b1-4)GlcNAc6S = target: Gal3S6S(b1-4)GlcNAc6S
# In short: as §1
# Gal4S(b1-4)GlcNAc = target: Gal4S(b1-4)GlcNAc
# In short: as §1
# Gal4S6S(b1-4)GlcNAc = target: Gal4S6S(b1-4)GlcNAc
# In short: as §1
# Gal6P(b1-4)GlcNAc = target: Gal6P(b1-4)GlcNAc
# In short: as §1
# Gal6S(b1-3)GlcNAc = target: Gal6S(b1-3)GlcNAc
# In short: as §1
# Gal6S(b1-3)GlcNAc6S = target: Gal6S(b1-3)GlcNAc6S
# In short: as §1
# Gal6S(b1-4)Glc = target: Gal6S(b1-4)Glc
# In short: as §1
binder,measurement,setting,value
B1,glycan array binding signal (z-score),Gal(b1-6)Gal,-0.415
same,glycan array binding signal (z-score),Gal3S(b1-3)GalNAc,-0.346
same,glycan array binding signal (z-score),Gal3S(b1-3)GlcNAc,-0.286
same,glycan array binding signal (z-score),[1],-0.367
same,glycan array binding signal (z-score),Gal3S(b1-4)Glc,0.069
same,glycan array binding signal (z-score),Gal3S(b1-4)Glc6S,-0.062
same,glycan array binding signal (z-score),Gal3S(b1-4)GlcNAc,-0.25
same,glycan array binding signal (z-score),[2],0.012
same,glycan array binding signal (z-score),[3],0.028
same,glycan array binding signal (z-score),[4],-0.008
same,glycan array binding signal (z-score),Gal3S4S(b1-4)GlcNAc,-0.505
same,glycan array binding signal (z-score),Gal3S6S(b1-4)GlcNAc,-0.401
same,glycan array binding signal (z-score),Gal3S6S(b1-4)GlcNAc6S,-0.016
same,glycan array binding signal (z-score),Gal4S(b1-4)GlcNAc,-0.482
same,glycan array binding signal (z-score),Gal4S6S(b1-4)GlcNAc,-0.068
same,glycan array binding signal (z-score),Gal6P(b1-4)GlcNAc,0.101
same,glycan array binding signal (z-score),Gal6S(b1-3)GlcNAc,0.76
same,glycan array binding signal (z-score),Gal6S(b1-3)GlcNAc6S,-0.131
same,glycan array binding signal (z-score),Gal6S(b1-4)Glc,0.183
